Measurements: article PMC4336329 (PLoS ONE, 2015)
Out of some 310,000 compounds screened, about 14,000 (4.5%) showed an effect of 50% or more. Effects have a minus sign here. Some of the results follow.

Biological target: human ether-à-go-go-related gene (hERG) potassium channel (human, UniProt Q12809)
Assay: primary screen, population patch clamp on CHO cells stably expressing hERG
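Further: peak tail current of the secondary pulse compared with the same well before compound.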

human ether-à-go-go-related gene (hERG) potassium channel, sequence (Q12809 whole entry, looked up): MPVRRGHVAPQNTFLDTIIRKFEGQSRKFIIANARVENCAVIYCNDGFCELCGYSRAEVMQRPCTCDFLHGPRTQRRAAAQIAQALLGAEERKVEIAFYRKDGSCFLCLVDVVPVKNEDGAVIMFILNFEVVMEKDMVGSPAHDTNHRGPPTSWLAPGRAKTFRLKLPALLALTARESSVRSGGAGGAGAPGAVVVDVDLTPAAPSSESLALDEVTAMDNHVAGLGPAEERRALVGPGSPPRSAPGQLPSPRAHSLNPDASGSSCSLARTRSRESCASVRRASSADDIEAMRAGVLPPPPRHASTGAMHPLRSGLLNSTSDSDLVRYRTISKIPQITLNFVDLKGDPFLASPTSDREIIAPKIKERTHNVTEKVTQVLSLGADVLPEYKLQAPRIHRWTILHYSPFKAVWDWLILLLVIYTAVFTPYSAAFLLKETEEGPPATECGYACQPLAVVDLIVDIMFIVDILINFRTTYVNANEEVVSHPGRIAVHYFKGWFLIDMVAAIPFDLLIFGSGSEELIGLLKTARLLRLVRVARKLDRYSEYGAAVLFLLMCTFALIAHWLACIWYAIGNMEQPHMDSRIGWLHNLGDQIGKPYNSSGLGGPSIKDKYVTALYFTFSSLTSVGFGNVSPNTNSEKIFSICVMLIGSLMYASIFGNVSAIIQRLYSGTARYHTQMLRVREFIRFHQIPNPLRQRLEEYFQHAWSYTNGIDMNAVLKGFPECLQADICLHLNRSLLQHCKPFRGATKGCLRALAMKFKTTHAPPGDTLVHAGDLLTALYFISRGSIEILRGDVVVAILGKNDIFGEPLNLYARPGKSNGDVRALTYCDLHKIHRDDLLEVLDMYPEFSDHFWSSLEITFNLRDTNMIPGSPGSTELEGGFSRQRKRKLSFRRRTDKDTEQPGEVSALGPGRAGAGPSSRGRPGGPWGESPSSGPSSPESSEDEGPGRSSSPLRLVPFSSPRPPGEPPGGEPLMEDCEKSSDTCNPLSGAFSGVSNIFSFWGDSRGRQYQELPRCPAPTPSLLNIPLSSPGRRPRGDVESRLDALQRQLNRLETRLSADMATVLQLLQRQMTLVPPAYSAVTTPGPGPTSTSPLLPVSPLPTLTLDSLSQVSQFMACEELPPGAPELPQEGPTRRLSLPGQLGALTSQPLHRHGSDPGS

SMILES | hERG current change (%, negative = inhibition) at 10uM
Cc1cc(C)c(S(=O)(=O)Nc2ccc(-c3cn4ccccc4n3)cc2)c(C)c1 | 11%
COC(=O)c1ccc(C2OCC(C)(C)CO2)cc1 | 5.97%
COC(=O)c1c(N=CN(C)C)c(C#N)c2n1CCCC2 | -4.02%
COc1cc(C(C)=O)ccc1OCC(O)CN(CCO)Cc1ccccc1 (stereo not shown) | -4.21%
COC(=O)c1c(C)n(Cc2ccccc2)c2ccc(O)cc12 | 14.8%
Brc1c(-c2ccc3c(c2)OCO3)nc2ncccn12 | 4.69%
COc1ccc(NC(=O)COC(C)=O)cc1Cl | 11.9%
CS(=O)(=O)N1CCCC(C(=O)Nc2c(F)cccc2F)C1 (stereo not shown) | 21.3%
Cc1cc(C(C)(C)C)oc1C(=O)N(CC(=O)NC1CCCC1)Cc1ccccc1Cl | -3.47%
O=C1NC(c2cccnc2)Nc2sc3c(c21)CCCC3 (stereo not shown) | 8.93%
O=C(Cn1cnc2sc(-c3ccccc3)cc2c1=O)NCCc1ccccc1 | 0.983%
N#Cc1c(-c2cccs2)cc(-c2cccnc2)nc1N | -5.78%
O=C(CCS(=O)(=O)c1cc2c(cc1Cl)NC(=O)CO2)NCc1ccccc1 | -16.1%
CNc1nc(-c2ccccc2)cc(C)c1S(C)(=O)=O | -14.5%
COCC(C)n1c(C)cc(C(=O)COc2ccc(C)nc2[N+](=O)[O-])c1C (stereo not shown) | 13.8%
O=C(CSc1ncn[nH]1)N1CCN(c2nnc(-c3ccccc3)c3ccccc23)CC1 | -0.967%
COc1ccc(-c2oc3ncn(Cc4ccco4)c(=N)c3c2-c2ccc(OC)cc2)cc1 | -49.4%
Clc1cccc(CSc2nnc(-c3c[nH]c4ccccc34)o2)c1 | 11.9%
CC(=O)Nc1ccc(NC(=O)C(C)Oc2ccccc2F)cc1 (stereo not shown) | 7.21%
CCN(CC)CCNc1nc(-n2nc(C)cc2C)nc2sc3c(c12)CC(C)(C)OC3 | -55.4%

SMILES | hERG current change (%, negative = inhibition) at 10uM
Cc1cc(Cl)cc(Cl)c1OCCN1CCCC1 | -55%
Nn1c(SCC(=O)Nc2ccccc2)nnc(Cc2ccccc2)c1=O | -1.24%
Cc1ccc(C(=O)Nc2nnn(C)n2)cc1 | 8.71%
Cc1ccc(NS(=O)(=O)c2ccc3c(c2)NC(=O)CO3)cc1Cl | 14.6%
O=C(/C=N/NC(=O)c1ccc(Cl)cc1Cl)c1ccccc1 | 2.34%
Cc1ccc(NC(=S)N(CCCN2CCOCC2)Cc2ccco2)cc1Cl | -36.6%
COc1ccc(C(C)NC(=O)Cc2cccs2)cc1OC (stereo not shown) | 11.4%
CC(NCc1ccccc1OC1CCCC1)c1ccccc1.Cl (stereo not shown) | -22.1%
CC(C)Oc1ccc(/C=N/NC(=O)c2ccc(N(Cc3ccccc3)S(C)(=O)=O)cc2)cc1 | -4.94%
CC(=O)OC1CC(n2ccc(NC(=O)c3ccccc3)nc2=O)OC1CO (stereo not shown) | 7.24%
COc1ccc(C2NCCC3(O)CCCCC23)c(OC)c1OC (stereo not shown) | -2.23%
COc1ccc(CCNC(=O)c2cc3c(C)nccc3[nH]c2=O)cc1OC | -22.6%
Cc1[nH]c2ccccc2c1SCc1nnc(SCc2ccc(Cl)cc2)n1C | -0.801%
COc1cc(CCC(O)CC(=O)CCc2ccccc2)ccc1O (stereo not shown) | -17.3%
COc1ccc(/C=C(/C#N)C(=O)Nc2cccc([N+](=O)[O-])c2)cc1C(=O)O | 23.8%
Cc1nnc(N2C(=O)C(=O)/C(=C(\O)c3ccc4c(c3)CC(C)O4)C2c2ccccc2)s1 (stereo not shown) | 20.9%
N#CCSc1ncnc2ccccc12 | 13.3%
COc1ccccc1NS(=O)(=O)c1cc(C)ccc1C | 4.55%
Cc1ccc(NC(=O)[C@@H]2CCC(=O)N2C2OC(=O)c3ccccc32)cc1Cl (stereo partly shown) | -3.84%
CC(=O)c1noc(C)c1C(=O)Nc1nccs1 | 11.3%

SMILES | hERG current change (%, negative = inhibition) at 10uM
CCOc1cc(C(=O)OCc2ccc(C(=O)OC)o2)cc(Br)c1OC | 2.79%
Cc1ccc(SCC(=O)NC(=O)NCCC(C)C)c(C)c1 | -1.09%
Cc1c(C(=O)Nc2ccc(Cc3ccncc3)cc2)cccc1[N+](=O)[O-] | 2.56%
CC(=O)NC(CCS(C)(=O)=O)C(=O)Nc1ccc(F)cc1Cl (stereo not shown) | 17.5%
CCOC(=O)c1c(C)[nH]c(C)c1S(=O)(=O)NC(CC)CN1CCOCC1 (stereo not shown) | 7.32%
S=C(NCc1ccccn1)Nc1ccc(Cl)cc1Cl | 6.07%
CCNc1nc(NCC)nc(N/N=C/c2ccc([N+](=O)[O-])o2)n1 | -50.8%
O=C(CCNC(=O)C1CCN(S(=O)(=O)c2ccccc2)CC1)NCc1ccccc1Cl | -8.17%
Cc1ccc(C)c(NC(=O)CSc2nnc(-c3ccccc3C)o2)c1 | -7.24%
Cc1c(C)c(C)c(CN2CCCC2)c(C)c1C | 0.935%
COc1ccc(-c2cc(C(=O)Nc3c(C)n(C)n(-c4ccccc4)c3=O)c3ccccc3n2)cc1 | 29.5%
Fc1ccc(N/N=C2/CC(c3ccccc3)Oc3ccccc32)c(F)c1 (stereo not shown) | 10.4%
Cc1cc(/C=C2\SC(=S)NC2=O)c(C)n1C1CC1 | 21%
CCOC(=O)c1nn(-c2ccc(F)cc2)cc1O | 7.23%
COc1ccccc1C1CC(c2ccc(C)cc2)Nc2ncnn21 (stereo not shown) | -4.63%
O=C(COc1ccc(Br)cc1)NNC(=O)c1ccc(-n2cncn2)c([N+](=O)[O-])c1 | -61%
CSc1cccc(NC(=O)c2ccccn2)c1 | 7.57%
COc1ccc(N(C(=O)c2snc(C(N)=O)c2N)C(C(=O)NCc2ccc(F)cc2)c2ccc(C)o2)c(OC)c1 (stereo not shown) | -0.656%
